Assay results from PubChem BioAssay AID720542 (National Center for Advancing Translational Sciences (NCATS), 2013).
Screen size: about 360,000 compounds; about 740 (0.21%) were called active. This list was built around the results that the source calls inconclusive (neither active nor inactive); the mix of calls is not that of the screen. The call rests on the fitted dose curve; in most records, active means well fitted inhibition curve with a large enough effect; inconclusive means small, poorly fitted or top-dose-only effect; inactive means no such curve, though single readings can be large or run the other way. Potencies of inconclusive entries are left out as doubtful fits.

System: Plasmodium falciparum AMA1 (3D7) - RON2 peptide interaction
Experiment: qHTS for Inhibitors of AMA1-RON; Towards Development of Antimalarial Drug Lead: Primary Screen; further: nearly all actives have a fitted effect of over 45% in size;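 on activity change, negative = inhibition: 0% = vehicle wells and -100% = peptide control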
Details: AlphaScreen AMA1-biotinylated RON2 peptide binding; activity change, negative = inhibition: at 58.2 µM (top of the series) unless noted
Outline: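 AMA1 (3D7) with his tag at 25 nM final met compounds first, then biotinylated RON2 peptide at 25 nM; detection used donor plus acceptor beads, 10 µg/mL apiece, read by AlphaScreen after 30 min at room temperature.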
Potency means the concentration at half of the fitted maximal effect; tags describe the fitted curve by direction and shape.

SMILES | Potency | activity change, negative = inhibition
COC(=O)c1ccsc1NC(=O)CN1CCN(c2ccc(F)cc2)CC1 | inconclusive [inhibitor, single point] | –
Cc1ccc(OCCOCCN2CCN(C)CC2)c(C(C)(C)C)c1 | inconclusive [inhibitor, single point] | –
O=C(O)c1cccc(Nc2nc(N3CCOCC3)nc(N3CCOCC3)n2)c1 | inconclusive [inhibitor, single point] | –
O=C(NC1CCCCC1)C(c1ccc2ncccc2c1)N(Cc1ccc2c(c1)OCO2)C(=O)c1ccc2c(c1)OCCO2 (stereo not drawn) | – | inactive: -5.33%
COc1cc(/C=C2/C(C)=C(C#N)c3nc(N)c(C#N)c(C)c32)ccc1OCC(=O)O | – | inactive: 0.739%
O=C(NNC(=O)c1ccco1)c1ccco1 | – | inactive: 14.6%
COc1ccccc1-n1c(SCC(=O)NCc2ccc3c(c2)OCO3)nc2cc([N+](=O)[O-])ccc21 | inconclusive [inhibitor, full curve] | –
COc1ccccc1N1CCN(C(=O)c2ccc3[nH]c4c(c3c2)CC(C)CC4)CC1 (stereo not drawn) | inconclusive [inhibitor, single point] | –
COc1ccc(NCCc2ccccn2)cc1 | inconclusive [inhibitor, partial curve] | –
O=C(O)c1nn(-c2cccc(C(F)(F)F)c2)ccc1=O | – | inactive: -3.78%
Cc1ccc(OCCCn2ccnc2)c([N+](=O)[O-])c1 | inconclusive [inhibitor, partial curve] | –
CC(C)N(C)c1ncnc2c1ncn2[C@H]1CN(Cc2ccc3c(c2)OCO3)C[C@@H](CO)O1 | – | inactive: 50.6%
CC1Cc2cc(/C(O)=C3/C(=O)C(=O)N(CCCn4ccnc4)C3c3ccc(F)cc3)ccc2O1 (stereo not drawn) | – | inactive: 9.92%
Cc1nc2c(N)nn(C)c2nc1C | – | inactive: 9.17%
Fc1cccc(Cc2c(-c3ccco3)nc3c4ccccc4ccn23)c1 | inconclusive [inhibitor, partial curve] | –
CCN(c1ccc(NC(=O)COC(=O)C2CCN(c3ccc(C(F)(F)F)cn3)CC2)cc1)C(C)C | inconclusive [inhibitor, partial curve] | –
Nc1ccccc1NC1CCCCC1 | inconclusive [inhibitor, single point] | –
Cc1ccccc1-n1c(SCC(=O)c2c(N)n(C)c(=O)n(C)c2=O)nc2sc3c(c2c1=O)CCCC3 | – | inactive: -12.4%
COc1ccc(CCNCC(=O)Nc2ccc(C)c(S(=O)(=O)N(C)C)c2)cc1OC | inconclusive [inhibitor, single point] | –
COc1ccc(C)cc1NCc1cccc(OC)c1OC | inconclusive [inhibitor, single point] | –
CC(C)(C)c1ccc(C2C3=C(CCCC3=O)NC3=C2C(=O)c2ccccc23)cc1 (stereo not drawn) | inconclusive [inhibitor, single point] | –
O=C(c1cc(=O)c2ccccc2o1)N1CCCc2ccccc21 | – | inactive: 2.42%

SMILES | Potency | activity change, negative = inhibition
CCC(=O)Nc1nnc(S(=O)(=O)N2CCc3ccccc32)s1 | inconclusive [inhibitor, partial curve] | –
O=C(CSc1n[nH]c(=O)n1-c1ccc2c(c1)OCCO2)Nc1ccccc1 | inconclusive [inhibitor, partial curve, poor fit] | –
COc1ccc(CCN2CC(C(=O)OC(C)C(=O)Nc3ccc(NC(C)=O)cc3)CC2=O)cc1OC (stereo not drawn) | – | inactive: -2.1% [at 11.6 µM]
COc1ccc(CN(CC(=O)NC2CCCC2)C(=O)c2ccc(-c3ccccc3)[nH]2)cc1 | inconclusive [inhibitor, single point] | –
CCN(CC)S(=O)(=O)c1ccc(OC)c(NC(=O)Cc2cccs2)c1 | – | inactive: -9.42%
O=C(c1ccc(Br)o1)N1CC=C(c2ccccc2)CC1 | inconclusive [inhibitor, single point] | –
COC(=O)Cn1c2c(c3cc(C)ccc31)CCCC2NC(C)c1ccccc1 (stereo not drawn) | inconclusive [inhibitor, partial curve] | –
COc1ccc(Nc2ccc(S(=O)(=O)N3CCCCC3)cc2[N+](=O)[O-])cc1Cl | inconclusive [inhibitor, full curve] | –
O=C(CN1CCN(c2ccccn2)CC1)N1c2ccccc2CCc2ccccc21 | inconclusive [inhibitor, single point] | –
CN(C)c1ccc(C=C2C=C(c3ccccc3)OC2=O)cc1 | active: 8.91 µM | –
O=C(CCO)c1ccc(O)cc1 | inconclusive [inhibitor, partial curve] | –
CN(C)c1ccc(NS(=O)(=O)c2cccc(Cl)c2)cc1 | inconclusive [inhibitor, partial curve] | –
COc1ccccc1-c1c(-c2ccc(OCC(=O)NN)cc2O)n[nH]c1C(F)(F)F | – | inactive: 50.3%
CCN(c1ccccc1)S(=O)(=O)c1ccc(N2CCN(c3ccc(O)cc3)CC2)nc1 | inconclusive [inhibitor, single point] | –
Cc1nc(N2CCN(Cc3ccc4c(c3)OCO4)CC2)c2cc(-c3ccccc3)sc2n1 | inconclusive [inhibitor, partial curve, poor fit] | –
Fc1ccc(N2CCN(c3nc(CN4CCOCC4)nc4scc(-c5ccccc5)c34)CC2)cc1 | inconclusive [inhibitor, partial curve] | –
CN(C)c1ccc(C(CNS(=O)(=O)c2ccc([N+](=O)[O-])cc2)N2CCCC2)cc1 (stereo not drawn) | inconclusive [inhibitor, partial curve] | –
CC(=O)Nc1ccc(S(=O)(=O)N2CCN(CC3CC4C=CC3C4)CC2)cc1 (stereo not drawn) | inconclusive [inhibitor, single point] | –
Fc1ccc(C2CC(c3cccs3)=NN2C(=S)Nc2ccccc2)cc1 (stereo not drawn) | inconclusive [inhibitor, partial curve] | –
Cc1[nH]n(-c2ccccc2)c(=O)c1/C=N/NC(=O)c1cccc([N+](=O)[O-])c1 | inconclusive [inhibitor, full curve, poor fit] | –
CCN(CC)CC#CCOC(c1ccccc1)c1ccccc1 | inconclusive [inhibitor, single point] | –
